# The supplement of paper PMC4604168 (melanoma cell lines)
# Some of the results follow. Many values rest on one well or one pass, so single values are uncertain.
# Columns and labels:
# Assay in all cases: cell count relative to DMSO control; melanoma cells; higher = more viable cells
# Details in all cases: library dose: low library concentration; 72 h
# WM115 = system: WM115
# WM1716 = system: WM1716
# WM1745 = system: WM1745
# WM3526 = system: WM3526
# WM3619 = system: WM3619
# WM451Lu = system: WM451Lu
# 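Also: cell number obtained by counting DAPI-stained nuclei in high-throughput microscope images with image analysis software, screen run in 1,536-well plates.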
SMILES,cell count (WM115),cell count (WM1716),cell count (WM1745),cell count (WM3526),cell count (WM3619),cell count (WM451Lu)
"Cc1cc(Nc2cc(N3CCN(C)CC3)nc(Sc3ccc(NC(=O)C4CC4)cc3)n2)n[nH]1 [Tozasertib] + COc1ccc(COc2ccc(Cc3cnc(N)nc3N)cc2OC)cc1 [GW2580] (first compound 0.006 µM, partner dose 1 µM)",84.3%,92.1%,89.5%,89.7%,85.7%,103%
"N#CC[C@H](C1CCCC1)n1cc(-c2ncnc3[nH]ccc23)cn1 [ruxolitinib] + CCCCCCCCCCCCCCCCCCOP(=O)([O-])OC1CC[N+](C)(C)CC1 [Perifosine] (first compound 1 µM, partner dose 0.4 µM)",118%,88.1%,113%,118%,96.4%,91.9%
"CC[C@]1(O)C[C@H]2CN(CCc3c([nH]c4ccccc34)[C@@](C(=O)OC)(c3cc4c(cc3OC)N(C=O)[C@H]3[C@@](O)(C(=O)OC)[C@H](OC(C)=O)[C@]5(CC)C=CCN6CC[C@]43[C@@H]65)C2)C1 [vincristine] + COc1cc([C@@H]2c3cc4c(cc3[C@@H](O[C@@H]3O[C@@H]5CO[C@@H](C)O[C@H]5[C@H](O)[C@H]3O)[C@H]3COC(=O)[C@H]23)OCO4)cc(OC)c1O [etoposide] (first compound 0.0001 µM, partner dose 0.02 µM)",59.2%,45.6%,78%,72.8%,65%,50.6%
"N#CC[C@H](C1CCCC1)n1cc(-c2ncnc3[nH]ccc23)cn1 [ruxolitinib] + CC1(C)NC(=O)N(c2ccc([N+](=O)[O-])c(C(F)(F)F)c2)C1=O [nilutamide] (first compound 1 µM, partner dose 1 µM)",103%,103%,88.8%,111%,94.7%,125%
"N#CC[C@H](C1CCCC1)n1cc(-c2ncnc3[nH]ccc23)cn1 [ruxolitinib] + N#Cc1c(O)c2c(-c3ccc(-c4ccccc4O)cc3)csc2[nH]c1=O [A769662] (first compound 1 µM, partner dose 2 µM)",111%,96.1%,90.1%,106%,86.5%,96.6%
"Cc1cc(Nc2cc(N3CCN(C)CC3)nc(Sc3ccc(NC(=O)C4CC4)cc3)n2)n[nH]1 [Tozasertib] + COc1cc2c(Oc3ccc4[nH]c(C)cc4c3F)ncnc2cc1OCCCN1CCCC1 [cediranib] (first compound 0.006 µM, partner dose 0.4 µM)",88.8%,93.7%,81.9%,114%,94.7%,127%
"CC[C@]1(O)C[C@H]2CN(CCc3c([nH]c4ccccc34)[C@@](C(=O)OC)(c3cc4c(cc3OC)N(C=O)[C@H]3[C@@](O)(C(=O)OC)[C@H](OC(C)=O)[C@]5(CC)C=CCN6CC[C@]43[C@@H]65)C2)C1 [vincristine] + O=S(=O)(c1ccccc1)N(CC(F)(F)F)c1ccc(C(O)(C(F)(F)F)C(F)(F)F)cc1 [T0901317] (first compound 0.0001 µM, partner dose 1.4 µM)",42.1%,31.5%,64.8%,55.8%,52.8%,42.2%
"N#CC[C@H](C1CCCC1)n1cc(-c2ncnc3[nH]ccc23)cn1 [ruxolitinib] + CN(C)S(=O)(=O)c1ccc2c(c1)/C(=C/c1cc3c([nH]1)CCCC3)C(=O)N2 [SU6656] (first compound 1 µM, partner dose 0.4 µM)",71.5%,113%,87.4%,96%,105%,82.1%
"N#CC[C@H](C1CCCC1)n1cc(-c2ncnc3[nH]ccc23)cn1 [ruxolitinib] + Cn1cncc1[C@@](N)(c1ccc(Cl)cc1)c1ccc2c(c1)c(-c1cccc(Cl)c1)cc(=O)n2C [tipifarnib] (first compound 1 µM, partner dose 0.01 µM)",97.5%,83.8%,90.1%,94.1%,98.3%,72.3%
"N#CC[C@H](C1CCCC1)n1cc(-c2ncnc3[nH]ccc23)cn1 [ruxolitinib] + Cn1sc(=O)n(Cc2ccccc2)c1=O [TDZD-8] (first compound 1 µM, partner dose 0.4 µM)",102%,84.2%,105%,105%,95%,113%
"N#CC[C@H](C1CCCC1)n1cc(-c2ncnc3[nH]ccc23)cn1 [ruxolitinib] + Cc1cc([N+](=O)[O-])ccc1NS(=O)(=O)c1cc(Cl)ccc1Cl [FH535] (first compound 1 µM, partner dose 1 µM)",100%,91.3%,115%,97.7%,79%,107%
"Cc1cc(Nc2cc(N3CCN(C)CC3)nc(Sc3ccc(NC(=O)C4CC4)cc3)n2)n[nH]1 [Tozasertib] + CC1(C)CCC(c2ccc(Cl)cc2)=C(CN2CCN(c3ccc(C(=O)NS(=O)(=O)c4ccc(N[C@H](CCN5CCOCC5)CSc5ccccc5)c(S(=O)(=O)C(F)(F)F)c4)cc3)CC2)C1 [ABT263] (first compound 0.006 µM, partner dose 0.4 µM)",67.7%,68.6%,19.9%,96.5%,92.1%,98.4%
"Cc1cc(Nc2cc(N3CCN(C)CC3)nc(Sc3ccc(NC(=O)C4CC4)cc3)n2)n[nH]1 [Tozasertib] + NC1(c2ccc(-c3nc4ccn5c(=O)[nH]nc5c4cc3-c3ccccc3)cc2)CCC1 [MK2206] (first compound 0.006 µM, partner dose 0.4 µM)",77.1%,80.3%,82.1%,67.7%,90.2%,129%
"Cc1cc(Nc2cc(N3CCN(C)CC3)nc(Sc3ccc(NC(=O)C4CC4)cc3)n2)n[nH]1 [Tozasertib] + COC(=O)c1sccc1S(=O)(=O)Nc1ccc(Nc2ccccc2)cc1OC [GSK0660] (first compound 0.006 µM, partner dose 1 µM)",90.6%,95.4%,95.4%,78.7%,96.4%,81.7%
"CC[C@]1(O)C[C@H]2CN(CCc3c([nH]c4ccccc34)[C@@](C(=O)OC)(c3cc4c(cc3OC)N(C=O)[C@H]3[C@@](O)(C(=O)OC)[C@H](OC(C)=O)[C@]5(CC)C=CCN6CC[C@]43[C@@H]65)C2)C1 [vincristine] + CN(c1ncccc1CNc1nc(Nc2ccc3c(c2)CC(=O)N3)ncc1C(F)(F)F)S(C)(=O)=O [PF562271] (first compound 0.0001 µM, partner dose 0.08 µM)",52.7%,43.7%,92.4%,76.8%,36.9%,52.7%
"Cc1cc(Nc2cc(N3CCN(C)CC3)nc(Sc3ccc(NC(=O)C4CC4)cc3)n2)n[nH]1 [Tozasertib] + Cc1ccc(Nc2nccc(N(C)c3ccc4c(C)n(C)nc4c3)n2)cc1S(N)(=O)=O [Pazopanib] (first compound 0.006 µM, partner dose 0.4 µM)",99%,85%,104%,92.3%,88.7%,95.5%
"CC[C@]1(O)C[C@H]2CN(CCc3c([nH]c4ccccc34)[C@@](C(=O)OC)(c3cc4c(cc3OC)N(C=O)[C@H]3[C@@](O)(C(=O)OC)[C@H](OC(C)=O)[C@]5(CC)C=CCN6CC[C@]43[C@@H]65)C2)C1 [vincristine] + COc1cc(N2CCC(N3CCN(C)CC3)CC2)ccc1Nc1ncc(Cl)c(Nc2ccccc2S(=O)(=O)C(C)C)n1 [NVP-TAE684] (first compound 0.0001 µM, partner dose 0.08 µM)",39%,45.1%,79.8%,63.1%,56.5%,51.9%
"N#CC[C@H](C1CCCC1)n1cc(-c2ncnc3[nH]ccc23)cn1 [ruxolitinib] + CO[C@@H]1[C@H](N(C)C(=O)c2ccccc2)C[C@H]2O[C@]1(C)n1c3ccccc3c3c4c(c5c6ccccc6n2c5c31)C(=O)NC4 [Midostaurin] (first compound 1 µM, partner dose 0.08 µM)",75.8%,72.2%,83.9%,112%,90.8%,90.5%
"Cc1cc(Nc2cc(N3CCN(C)CC3)nc(Sc3ccc(NC(=O)C4CC4)cc3)n2)n[nH]1 [Tozasertib] + COc1ccc(C2=N[C@@H](c3ccc(Cl)cc3)[C@@H](c3ccc(Cl)cc3)N2C(=O)N2CCNC(=O)C2)c(OC(C)C)c1 [Nutlin-3] (first compound 0.006 µM, partner dose 0.1 µM)",87.4%,96.3%,97.4%,77.7%,83.5%,93.1%
"Cc1cc(Nc2cc(N3CCN(C)CC3)nc(Sc3ccc(NC(=O)C4CC4)cc3)n2)n[nH]1 [Tozasertib] + C#Cc1cccc(Nc2ncnc3cc(OCCOC)c(OCCOC)cc23)c1 [erlotinib] (first compound 0.006 µM, partner dose 0.8 µM)",90.7%,111%,85.7%,71.7%,120%,98.3%
"N#CC[C@H](C1CCCC1)n1cc(-c2ncnc3[nH]ccc23)cn1 [ruxolitinib] + COCC[n+]1c2c(n(Cc3cnccn3)c1C)C(=O)c1ccccc1C2=O [YM155] (first compound 1 µM, partner dose 0.0004 µM)",102%,99.1%,104%,125%,117%,68.3%
"N#CC[C@H](C1CCCC1)n1cc(-c2ncnc3[nH]ccc23)cn1 [ruxolitinib] + CC(=O)c1c(C)c2cnc(Nc3ccc(N4CCNCC4)cn3)nc2n(C2CCCC2)c1=O [palbociclib] (first compound 1 µM, partner dose 0.04 µM)",93.6%,71.2%,82.4%,66.2%,75.7%,86.5%
